Results taken from the supplement of paper PMC8728848.
The list shows a part of the results.

Legend:
Assay in all cases: glycan array binding signal (z-score within array); higher = stronger binding
Conditions in all cases: glycan notation: IUPAC condensed, linker removed
[1] = target: Neu5Ac(a2-3)Gal(b1-3)GalNAc
Method in brief: (§1)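 Glycan array data came from 3228 arrays in the Consortium for Functional Glycomics database, and only arrays with an available protein sequence were kept. Glycan names were put into IUPAC-condensed notation, and columns mapping to the same glycan were averaged. The binding signal is a within-array Z-score, averaged across arrays of one protein sequence run at different concentrations or buffers and across linkers. A negative Z-score can be read as non-binding.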

[2] = target: Neu5Ac(a2-3)Gal(b1-3)GalNAc(b1-3)Gal(a1-4)Gal(b1-4)Glc
Method in brief: as §1

[3] = target: Neu5Ac(a2-3)Gal(b1-3)GalNAc(b1-4)[Neu5Ac(a2-3)]Gal(b1-4)Glc
Method in brief: as §1

[4] = target: Neu5Ac(a2-3)Gal(b1-3)GalNAc(b1-4)[Neu5Ac(a2-8)Neu5Ac(a2-3)]Gal(b1-4)Glc
Method in brief: as §1

[5] = target: Neu5Ac(a2-3)Gal(b1-3)GalNAc6S
Method in brief: as §1

[6] = target: Neu5Ac(a2-3)Gal(b1-3)GlcNAc
Method in brief: as §1

[7] = target: Neu5Ac(a2-3)Gal(b1-3)GlcNAc(b1-2)Man
Method in brief: as §1

[8] = target: Neu5Ac(a2-3)Gal(b1-3)GlcNAc(b1-2)Man(a1-3)[GlcNAc(b1-4)][Neu5Ac(a2-3)Gal(b1-3)GlcNAc(b1-2)Man(a1-6)]Man(b1-4)GlcNAc(b1-4)GlcNAc
Method in brief: as §1

[9] = target: Neu5Ac(a2-3)Gal(b1-3)GlcNAc(b1-2)Man(a1-3)[Neu5Ac(a2-3)Gal(b1-3)GlcNAc(b1-2)Man(a1-6)]Man(b1-4)GlcNAc(b1-4)GlcNAc
Method in brief: as §1

[10] = target: Neu5Ac(a2-3)Gal(b1-3)GlcNAc(b1-2)[Neu5Ac(a2-3)Gal(b1-3)GlcNAc(b1-4)]Man(a1-6)[Neu5Ac(a2-3)Gal(b1-3)GlcNAc(b1-2)Man(a1-3)]Man(b1-4)GlcNAc(b1-4)GlcNAc
Method in brief: as §1

[11] = target: Neu5Ac(a2-3)Gal(b1-3)GlcNAc(b1-3)Gal(b1-3)GlcNAc
Method in brief: as §1

[12] = target: Neu5Ac(a2-3)Gal(b1-3)GlcNAc(b1-3)Gal(b1-4)GlcNAc
Method in brief: as §1

[13] = target: Neu5Ac(a2-3)Gal(b1-3)GlcNAc(b1-3)GalNAc
Method in brief: as §1

[14] = target: Neu5Ac(a2-3)Gal(b1-3)GlcNAc(b1-4)Gal(b1-4)Glc
Method in brief: as §1

[15] = target: Neu5Ac(a2-3)Gal(b1-3)GlcNAc(b1-6)GalNAc
Method in brief: as §1

[16] = target: Neu5Ac(a2-3)Gal(b1-3)GlcNAc6S
Method in brief: as §1

[17] = target: Neu5Ac(a2-3)Gal(b1-3)[Fuc(a1-4)]GlcNAc
Method in brief: as §1

[18] = target: Neu5Ac(a2-3)Gal(b1-3)[Fuc(a1-4)]GlcNAc(b1-3)Gal(b1-3)[Fuc(a1-4)]GlcNAc
Method in brief: as §1

[19] = target: Neu5Ac(a2-3)Gal(b1-3)[Fuc(a1-4)]GlcNAc(b1-3)Gal(b1-4)[Fuc(a1-3)]GlcNAc
Method in brief: as §1

[20] = target: Neu5Ac(a2-3)Gal(b1-3)[GlcNAc(b1-6)]GalNAc
Method in brief: as §1

[21] = target: Neu5Ac(a2-3)Gal(b1-3)[Neu5Ac(a2-6)]GalNAc
Method in brief: as §1

[22] = target: Neu5Ac(a2-3)Gal(b1-3)[Neu5Ac(a2-6)]GlcNAc(b1-3)[Fuc(a1-3)[Gal(b1-4)]GlcNAc(b1-6)]Gal(b1-4)Glc
Method in brief: as §1

[23] = target: Neu5Ac(a2-3)Gal(b1-3)]Neu5Ac(a2-3)Gal(b1-4)]GlcNAc
Method in brief: as §1

Neu5Ac(a2-3)Gal(b1-4)Glc = target: Neu5Ac(a2-3)Gal(b1-4)Glc
Method in brief: as §1

[24] = target: Neu5Ac(a2-3)Gal(b1-4)GlcNAc
Method in brief: as §1

[25] = target: Neu5Ac(a2-3)Gal(b1-4)GlcNAc(b1-2)Man
Method in brief: as §1

[26] = target: Neu5Ac(a2-3)Gal(b1-4)GlcNAc(b1-2)Man(a1-3)[GlcNAc(b1-4)][Neu5Ac(a2-3)Gal(b1-4)GlcNAc(b1-2)Man(a1-6)]Man(b1-4)GlcNAc(b1-4)GlcNAc
Method in brief: as §1

[27] = target: Neu5Ac(a2-3)Gal(b1-4)GlcNAc(b1-2)Man(a1-3)[Neu5Ac(a2-3)Gal(b1-4)GlcNAc(b1-2)Man(a1-6)]Man(b1-4)GlcNAc(b1-4)GlcNAc
Method in brief: as §1

[28] = target: Neu5Ac(a2-3)Gal(b1-4)GlcNAc(b1-2)Man(a1-3)[Neu5Ac(a2-3)Gal(b1-4)GlcNAc(b1-2)Man(a1-6)]Man(b1-4)GlcNAc(b1-4)[Fuc(a1-6)]GlcNAc
Method in brief: as §1

[29] = target: Neu5Ac(a2-3)Gal(b1-4)GlcNAc(b1-2)Man(a1-3)[Neu5Ac(a2-6)Gal(b1-4)GlcNAc(b1-2)Man(a1-6)]Man(b1-4)GlcNAc(b1-4)GlcNAc
Method in brief: as §1

[30] = target: Neu5Ac(a2-3)Gal(b1-4)GlcNAc(b1-2)[Neu5Ac(a2-3)Gal(b1-4)GlcNAc(b1-4)]Man(a1-3)[GlcNAc(b1-4)][Neu5Ac(a2-3)Gal(b1-4)GlcNAc(b1-2)[Neu5Ac(a2-3)Gal(b1-4)GlcNAc(b1-6)]Man(a1-6)]Man(b1-4)GlcNAc(b1-4)GlcNAc
Method in brief: as §1

[31] = target: Neu5Ac(a2-3)Gal(b1-4)GlcNAc(b1-2)[Neu5Ac(a2-3)Gal(b1-4)GlcNAc(b1-4)]Man(a1-3)[GlcNAc(b1-4)][Neu5Ac(a2-3)Gal(b1-4)GlcNAc(b1-4)Man(a1-6)]Man(b1-4)GlcNAc(b1-4)GlcNAc
Method in brief: as §1

[32] = target: Neu5Ac(a2-3)Gal(b1-4)GlcNAc(b1-2)[Neu5Ac(a2-3)Gal(b1-4)GlcNAc(b1-6)]Man(a1-6)[Neu5Ac(a2-3)Gal(b1-4)GlcNAc(b1-2)Man(a1-3)][GlcNAc(b1-4)]Man(b1-4)GlcNAc(b1-4)GlcNAc
Method in brief: as §1

[33] = target: Neu5Ac(a2-3)Gal(b1-4)GlcNAc(b1-3)Gal
Method in brief: as §1

[34] = target: Neu5Ac(a2-3)Gal(b1-4)GlcNAc(b1-3)Gal(b1-3)GlcNAc
Method in brief: as §1

[35] = target: Neu5Ac(a2-3)Gal(b1-4)GlcNAc(b1-3)Gal(b1-4)GlcNAc
Method in brief: as §1

[36] = target: Neu5Ac(a2-3)Gal(b1-4)GlcNAc(b1-3)Gal(b1-4)GlcNAc(b1-2)Man(a1-3)[Neu5Ac(a2-3)Gal(b1-4)GlcNAc(b1-3)Gal(b1-4)GlcNAc(b1-2)Man(a1-6)]Man(b1-4)GlcNAc(b1-4)GlcNAc
Method in brief: as §1

B1: FGFR2-Fc (protein)
chain: MVNVTDAISSGDDEDDTDGAEDFVSENSNNKRAPYWTNTEKMEKRLHAVPAANTVKFRCPAGGNPMPTMRWLKNGKEFKQEHRIGGYKVRNQHWSLIMESVVPSDKGNYTCVVENEYGSINHTYHLDVVERSPHRPILQAGLPANASTVVGGDVEFVCKVYSDAQPHIQWIKHVEKNGSKYGPDGLPYLKVLKHSGINSSNAEVLALFNVTEADAGEYICKVSNYIGQANQSAWLTVLPKQQAPGREKEITASPDYLETRPLEQKLISEEDLAANDILDYKDDDDKV
glycan array binding signal (z-score) [1]: 0.247 | glycan array binding signal (z-score) [2]: -0.394 | glycan array binding signal (z-score) [3]: -0.453 | glycan array binding signal (z-score) [4]: -0.349 | glycan array binding signal (z-score) [5]: -0.172 | glycan array binding signal (z-score) [6]: 0.268 | glycan array binding signal (z-score) [7]: -0.383 | glycan array binding signal (z-score) [8]: 0.046 | glycan array binding signal (z-score) [9]: -0.602 | glycan array binding signal (z-score) [10]: 0.32 | glycan array binding signal (z-score) [11]: -0.428 | glycan array binding signal (z-score) [12]: 0.422 | glycan array binding signal (z-score) [13]: -0.411 | glycan array binding signal (z-score) [14]: -0.36 | glycan array binding signal (z-score) [15]: -0.13 | glycan array binding signal (z-score) [16]: 0.227 | glycan array binding signal (z-score) [17]: -0.042 | glycan array binding signal (z-score) [18]: -0.001 | glycan array binding signal (z-score) [19]: -0.139 | glycan array binding signal (z-score) [20]: -0.365 | glycan array binding signal (z-score) [21]: -0.447 | glycan array binding signal (z-score) [22]: 0.595 | glycan array binding signal (z-score) [23]: -0.115 | glycan array binding signal (z-score) (Neu5Ac(a2-3)Gal(b1-4)Glc): 0.682 | glycan array binding signal (z-score) [24]: -0.147 | glycan array binding signal (z-score) [25]: 0.836 | glycan array binding signal (z-score) [26]: 0.136 | glycan array binding signal (z-score) [27]: 0.035 | glycan array binding signal (z-score) [28]: 0.282 | glycan array binding signal (z-score) [29]: -0.022 | glycan array binding signal (z-score) [30]: 0.283 | glycan array binding signal (z-score) [31]: -0.242 | glycan array binding signal (z-score) [32]: 0.107 | glycan array binding signal (z-score) [33]: 0.068 | glycan array binding signal (z-score) [34]: -0.431 | glycan array binding signal (z-score) [35]: 0.322 | glycan array binding signal (z-score) [36]: -0.273
